What all share (assay): Primary Screen for Target Class Profiling of Small Molecule Inhibitors of Methyltransferases
Experiment [1] concerns the target Glycine N-methyltransferase (Homo sapiens) (UniProt Q14749). The following applies: purified enzyme, MTase-Glo SAH luminescence; measured here: GNMT inhibition; at 40 µM; stronger effect = lower value. The gist of the method:
(§1)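 Each enzyme was reacted with SAM and its substrate, with compounds tested once at 40 uM; SAH formed was read by MTase-Glo luminescence.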

The target in experiment [2] is Guanidinoacetate N-methyltransferase (Homo sapiens) (UniProt Q14353). The settings on record: purified enzyme, MTase-Glo SAH luminescence; measured here: GAMT inhibition; at 40 µM; stronger effect = lower value. The gist of the method:
as §1

The target of experiment [3] is Histamine N-methyltransferase (Homo sapiens) (UniProt P50135). The settings on record: purified enzyme, MTase-Glo SAH luminescence; measured here: HNMT inhibition; at 40 µM; stronger effect = lower value. In outline:
as §1

In experiment [4] the target is Nicotinamide N-methyltransferase (Homo sapiens) (UniProt P40261). The following applies: purified enzyme, MTase-Glo SAH luminescence; measured here: NNMT inhibition; at 40 µM; stronger effect = lower value. In outline: as §1
The target of experiment [5] is Phenylethanolamine N-methyltransferase (Homo sapiens) (UniProt P11086). The following applies: purified enzyme, MTase-Glo SAH luminescence; measured here: PNMT inhibition; at 40 µM; stronger effect = lower value. The gist of the method:
as §1

Each structure is given as a SMILES string. The list shows a part of the results. Shown are side measurements of this screen, not its main read-out; they come without a call.
% is scaled to controls: 0 for no effect and ±100 for the full control effect.

For `COC(=O)CNC(=O)NCCc1ncc(C)n1C1CCCC1`, the activity change, negative = inhibition is -2.05% in experiment [1]; -2.74% in experiment [2]; -19.3% in experiment [3]; -6% in experiment [4]; -5.28% in experiment [5].
The corresponding values for `COc1ccc(CNC(=O)C[C@@H]2C[C@H]3O[C@H](CNC4CCCC4)[C@@H](O)[C@H]3O2)cc1` are -4.34%, -3.21%, -2.78%, -9.31% and 6.78%.
For the compound `CCNC(=O)N1CCCN(c2ccc(C(=O)NCCc3ccc(Cl)cc3Cl)cc2NC(=O)c2cccc(Cl)c2)CC1`, the activity change, negative = inhibition in experiment [1] is -3.19%; in experiment [2] it was -16.9%; in experiment [3], 7.02%; in experiment [4], -36.6%; in experiment [5], -13.4%.
With `C=C[C@@]1(C)CC(=O)C2[C@](C)(O1)[C@@H](OC(C)=O)[C@@H](O)[C@H]1C(C)(C)CCC[C@]21C` (stereo not given in full), the activity change, negative = inhibition in experiment [1] was 4.24%; in experiment [2] it was 9.25%; in experiment [3] it was 12.3%; in experiment [4] it was -5.97%; in experiment [5], 5.8%.
The like results for `COc1ccccc1N1CCN(CC[C@H]2CN(C(=O)NC3CCCCC3)CC[C@H]2CC(=O)O)CC1` were, in that order, -2.91%, -7.2%, -4.09%, -8.48% and -9.68%.
As for `O=C(CCCCCCC(=O)Nc1ccc([C@H]2O[C@@H](CSc3nc(-c4ccccc4)c(-c4ccccc4)o3)C[C@@H](c3ccc(CO)cc3)O2)cc1)NO`, the activity change, negative = inhibition is -5.17% in experiment [1]; 7.92% in experiment [2]; -2.81% in experiment [3]; -28.4% in experiment [4]; -10.4% in experiment [5].
The like results for `CCOc1ccc(CNS(=O)(=O)c2ccc3[nH]c(=O)[nH]c3c2)cc1OC` were, in that order, 3.94%, 0.138%, 5.21%, 0.394% and -11.3%.
As for `CC(=O)N[C@H]1C[C@@H](c2cc(C)c(C)cc2C)O[C@@H](C(C)(C)C)C1`, the activity change, negative = inhibition was -5.26% in experiment [1]; -6.03% in experiment [2]; -6.39% in experiment [3]; -8.54% in experiment [4]; -4.02% in experiment [5].
`Cn1c(=O)c2ccccc2n2c(CCC(=O)NCCCN3CCN(c4cccc(Cl)c4)CC3)nnc12`: the activity change, negative = inhibition was -2.73% in experiment [1]; 3.49% in experiment [2]; -1.84% in experiment [3]; 0.3% in experiment [4]; 0.942% in experiment [5].
For the compound `Cc1ccc(N2C(=O)c3cc4ccccc4n3CC2(C)C(=O)NC2CCCC2)cc1` (stereo not given), the activity change, negative = inhibition in experiment [1] was 4.32%; in experiment [2] it was 0%; in experiment [3], 0.819%; in experiment [4], 5%; in experiment [5] it was 1.27%.
The corresponding values for `Cc1ccccc1CN1CCn2c1nc1c(c2=O)CN(Cc2ccccc2)CC1` are 2.81%, 3%, 0.777%, -13.3% and -5.83%.
With `Cc1ccc(NS(=O)(=O)c2cc3c(cc2Cl)n(C)c(=O)n3C)cc1C`, the activity change, negative = inhibition in experiment [1] was -3.34%; in experiment [2] it was 3.62%; in experiment [3], -6.31%; in experiment [4], -11.5%; in experiment [5], -6.83%.
The corresponding values for `CN1CCC(C(=O)N2CCC(n3c(=O)[nH]c4ccccc43)CC2)CC1` are -0.145%, -1.34%, -17.1%, 2.76% and 1.35%.
The corresponding values for `COCC1CN(C2CCC2)CC12CCN(S(=O)(=O)c1cnc[nH]1)CC2` (stereo not given) are -5.61%, -6.25%, -3.71%, -11.3% and -2.65%.
The like results for `Cn1c(=O)c2ccc(C(=O)NC3CCCC3)cc2n2c(=O)n(CC(=O)Nc3cccc(Cl)c3)nc12` were, in that order, 1.98%, 1.1%, 4.77%, -3.51% and 1.16%.
For `CC1(C(=O)NC2CCCCC2)Cn2c(ccc2-c2ccco2)C(=O)N1CCCN1CCCCC1` (stereo not given), the activity change, negative = inhibition came out at 6.97% in experiment [1]; 4.77% in experiment [2]; 4.11% in experiment [3]; 11.2% in experiment [4]; 3.09% in experiment [5].

The values above are taken from PubChem BioAssay AID1745853 (National Center for Advancing Translational Sciences (NCATS), 2022).
